Reference: paper PMC5760531, “Action Potential Recording and Pro-arrhythmia Risk Analysis in Human Ventricular Trabeculae” (Frontiers in Physiology, 2018)
The source gives many values for each of these; only a part stands here.

Tested on: human ventricular trabeculae
Test: Action potential recording and pro-arrhythmic score analysis in human ventricular trabeculae (hVT);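 note: sharp microelectrode action potential recordings at 37°C in Tyrode-perfused trabeculae, 4 cumulative concentrations each applied 31 min, values averaged over last 30 APs, vehicle 0.1% DMSO as control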
Details: 2Hz

For `COc1cc2nc(N(C)CCCNC(=O)C3CCCO3)nc(N)c2cc1OC` (centres unmarked) [ALFUZOSIN, Alfuzosin], which “STV percentage change compared to vehicle control” value (“STV percentage change” below) (1.6-FOLD free ETPC (0.006µM)) is on record?
The value was 8%.

And the “STV percentage change” value (17-FOLD free ETPC (0.006µM))?
Its value is 13%.

And the “STV percentage change” value (167-FOLD free ETPC (0.006µM))?
Its value is 10%.

And the “STV percentage change” value (1667-FOLD free ETPC (0.006µM))?
Its value is -4%.

What does the source list for `COc1cc(N)c(Cl)cc1C(=O)NC1CCN(CCCOc2ccc(F)cc2)CC1OC` (centres unmarked) [CISAPRIDE, Cisapride]?
STV percentage change compared to vehicle control (1-FOLD free ETPC (0.003µM)): 282%; STV percentage change compared to vehicle control (10-FOLD free ETPC (0.003µM)): 155%; STV percentage change compared to vehicle control (100-FOLD free ETPC (0.003µM)): 214%

With `Nc1nnc(-c2cccc(Cl)c2Cl)c(N)n1` [LAMOTRIGINE, Lamotrigine] as the compound, how does the “STV percentage change” value (0.6-FOLD free ETPC (17µM)) read?
Its value is -6%.

What about the “STV percentage change” value (6-FOLD free ETPC (17µM)) of the same compound?
The value was 262%.

And the “STV percentage change” value (18-FOLD free ETPC (17µM))?
Its value is 1720%.

And the “STV percentage change” value (59-FOLD free ETPC (17µM))?
Its value is 870%.

For `Cc1cccc(C)c1OCC(C)N` (centres unmarked) [MEXILETINE, Mexiletine], which “STV percentage change” value (73-FOLD free ETPC (4.1µM)) is on record?
The value was 3767%.

`O=C1NCCN1CCN1CCC(c2cn(-c3ccc(F)cc3)c3ccc(Cl)cc23)CC1` [SERTINDOLE, Sertindole] was tested. Which “STV percentage change” value (1.5-FOLD free ETPC (0.002µM)) did it give?
Its value is 98%.

And the “STV percentage change” value (15-FOLD free ETPC (0.002µM))?
The value was -18%.

What about the “STV percentage change” value (150-FOLD free ETPC (0.002µM)) of the same compound?
Its value is 29%.

What about the “STV percentage change” value (1500-FOLD free ETPC (0.002µM)) of the same compound?
Its value is -32%.

With `CC(C)(C)c1ccc(C(O)CCCN2CCC(C(O)(c3ccccc3)c3ccccc3)CC2)cc1` (centres unmarked) [TERFENADINE, Terfenadine] as the compound, how does the “STV percentage change” value (1-FOLD free ETPC (0.009µM)) read?
Its value is 56%.

What about the “STV percentage change” value (11-FOLD free ETPC (0.009µM)) of the same compound?
The value was 7%.

And the “STV percentage change” value (111-FOLD free ETPC (0.009µM))?
Its value is 26%.

What about the “STV percentage change” value (1111-FOLD free ETPC (0.009µM)) of the same compound?
The value was -2%.
